# Measured values reported in PubChem BioAssay AID1476 (National Center for Advancing Translational Sciences (NCATS), 2009).
# Hit rate of the full screen: of about 200,000 compounds, about 4,500 (2.2%) were called active. This list was built around the results that the source calls inconclusive (neither active nor inactive); the mix of calls is not that of the screen. Calls follow the shape of the dose curve; as a rule, active = well fitted inhibition curve with a large enough effect; inconclusive = small, poorly fitted or top-dose-only effect, or effect the other way; inactive = flat fitted curve, though single readings scatter. Potencies beside an inconclusive call are fits to weak or partial responses and may not hold up.
# Target: Cruzipain (Trypanosoma cruzi) (UniProt P25779)
# Assay: qHTS Assay for Promiscuous and Specific Inhibitors of Cruzain (without detergent); also: nearly all actives have a fitted effect of over 40% in size;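 as to max response, negative = inhibition: plate controls were enzyme without inhibitor for no effect and buffer without enzyme for full effect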
# Conditions: purified cruzain, Z-FR-AMC fluorescence, no detergent
# Summary of the method: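 Purified cruzain at 1.5 nM, pre-incubated 15 min with compound at room temperature in 100 mM sodium acetate pH 5.5, 5 mM DTT, 0.00005% Triton X-100. Reaction started with 2 uM Z-FR-AMC; AMC fluorescence increase over 60 s gives rate.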
# Potency is read from the fitted curve at half-maximal effect; tags tell the direction and shape of the fitted curve.
# Sequence of UniProt P25779 (P25779 whole entry, looked up): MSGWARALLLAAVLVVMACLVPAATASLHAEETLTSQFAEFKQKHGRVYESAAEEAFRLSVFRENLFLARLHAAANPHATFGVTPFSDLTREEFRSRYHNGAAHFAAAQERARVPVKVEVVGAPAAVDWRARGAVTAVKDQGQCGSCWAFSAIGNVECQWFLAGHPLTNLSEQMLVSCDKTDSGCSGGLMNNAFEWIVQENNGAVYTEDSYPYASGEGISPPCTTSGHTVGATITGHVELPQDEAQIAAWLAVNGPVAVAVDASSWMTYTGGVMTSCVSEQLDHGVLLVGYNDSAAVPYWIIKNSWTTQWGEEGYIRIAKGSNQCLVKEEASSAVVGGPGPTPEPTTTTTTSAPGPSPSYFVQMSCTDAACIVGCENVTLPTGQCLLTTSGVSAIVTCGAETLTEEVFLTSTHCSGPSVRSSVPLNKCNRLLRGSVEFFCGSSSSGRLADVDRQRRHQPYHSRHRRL
Structure (SMILES),Potency,"max response, negative = inhibition"
CCOc1ccc(C(=O)c2cn(Cc3ccc(OC)cc3)c3cc(OC)c(OC)cc3c2=O)cc1,"inconclusive: 0.794 µM [activator, single point]",–
CC(C)(C)c1ccc(C(=O)N2CCC(C(=O)NCCC3=CCCCC3)CC2)cc1,"inconclusive: 25.1 µM [activator, partial curve]",–
CCc1cccc(NC(c2nnc(-c3ccccc3)o2)c2ccc(F)cc2Cl)c1 (stereo unspecified),–,inactive: -1.95%
O=C(CN(c1ccccc1)S(=O)(=O)c1ccccc1)N/N=C/c1ccc(OC2CSC2)cc1,"inconclusive: 39.8 µM [inhibitor, single point]",–
COc1ccccc1-c1nc2n(n1)C(c1cccs1)C(C(=O)Nc1cccnc1)=C(C)N2 (stereo unspecified),"inconclusive: 31.6 µM [inhibitor, single point]",–
O=C(CN(c1cccc(Cl)c1)S(=O)(=O)c1ccc(Cl)cc1)N1CCc2ccccc2C1,"inconclusive: 31.6 µM [inhibitor, single point]",–
Cc1ccccc1N(C)S(=O)(=O)c1ccc2[nH]cc(C(=O)NCC3CCCO3)c(=O)c2c1 (stereo unspecified),"inconclusive: 25.1 µM [activator, single point]",–
CCc1ccccc1NC(=O)C(=O)NCC(c1cccnc1)N1CCc2ccccc21 (stereo unspecified),–,inactive: -0.786%
Cc1ccc(C)c(Cn2c(SCC(=O)N(C)Cc3ccccc3)nc3ccccc32)c1,–,inactive: 9.27%
Cc1ccc(C)c(N2CCN(C(=O)CCCCCn3c(=O)[nH]c4ccccc4c3=O)CC2)c1,–,inactive: 9.22%
CN1CC[C@@]2(CCCN(S(=O)(=O)c3ccccc3)C2)C1,–,inactive: -5.35%
Cc1ccc(N2CC(C(=O)NCc3nnnn3-c3ccc(C)c(C)c3)CC2=O)cc1C (stereo unspecified),"inconclusive: 39.8 µM [activator, single point]",–
CC(C)(C)n1ncc2c(=O)n(CC(=O)NCCc3ccccc3)cnc21,–,inactive: 0.69%
CC(C)c1ccc2oc(-c3cc(NC(=O)c4cccnc4)ccc3Cl)nc2c1,"inconclusive: 25.1 µM [activator, single point]",–
O=C(c1ccc(-c2ccccc2)cc1)c1ccccc1C(=O)N1CCOCC1,"inconclusive: 31.6 µM [activator, single point]",–
CCCn1c(N)c(C(=O)CSc2nc(C)cs2)c(=O)[nH]c1=O,–,inactive: 6.96%
CCC1=C(OC(=O)N(CC)CC)N2C(=O)OC(=NCCc3c[nH]c4ccccc34)[C@]2(C)[C@H]2C1=CC[C@H]1C(=O)NC(=O)[C@H]12,"inconclusive: 39.8 µM [activator, single point]",–
CCCCCCCCCCCCOC1OC(CO)C(O)C(O)C1NC(C)=O (stereo unspecified),"inconclusive: 25.1 µM [activator, partial curve]",–
c1ccc2c(NCCN3CCOCC3)nc(-c3ccoc3)nc2c1,–,inactive: 5.28%
O=C(Nc1cccc(F)c1)C1CCN(S(=O)(=O)c2ccc3[nH]c4c(c3c2)CCCCC4)CC1,active: 15.8 µM,–
O=C(Nc1cnn(Cc2ccccc2)c1)c1cc2nc(-c3ccco3)cc(C(F)(F)F)n2n1,"inconclusive: 25.1 µM [activator, single point]",–

Structure (SMILES),Potency,"max response, negative = inhibition"
COc1cc2nc(=S)n3[nH]c(CCn4nc(C)cc4C)nc3c2cc1OC,"inconclusive: 31.6 µM [activator, single point]",–
O=C(COc1cc(Cl)ccc1Cl)Nc1ccc2c(c1)CCC2,active: 25.1 µM,–
CC1=C(C(=O)OC2CCCCC2)C(c2ccc(C)o2)C2=C(CCCC2=O)N1 (stereo unspecified),"inconclusive: 25.1 µM [activator, single point]",–
CN(C)c1cccc(C(=O)OC(C(=O)Nc2ccc([N+](=O)[O-])cc2Br)c2ccccc2)c1 (stereo unspecified),active: 15.8 µM,–
CCOC(=O)N1CCC(NC(=O)C2CCCN(c3nc4ccccc4o3)C2)CC1 (stereo unspecified),"inconclusive: 25.1 µM [activator, single point]",–
Cc1ccc(OCC(=O)N/N=C\c2cn(C)c3ccccc23)c([N+](=O)[O-])c1,"inconclusive: 31.6 µM [activator, single point]",–
CCOC(=O)C1CCCN(C(=O)Cn2ncc3c4ccccc4n(C)c3c2=O)C1 (stereo unspecified),"inconclusive: 39.8 µM [activator, single point]",–
O=C(Nc1cc(S(=O)(=O)N2CCOCC2)ccc1Cl)C(=O)c1c(-c2ccccc2)cc2ccccn12,"inconclusive: 31.6 µM [inhibitor, single point]",–
CCc1ccc(NC(=O)Cn2nnc(C(=O)Nc3ccc(F)cc3)c2N)cc1,"inconclusive: 12.6 µM [inhibitor, partial curve]",–
O=C(Nc1cccc(O)c1)c1cc(-c2ccccc2F)no1,"inconclusive: 39.8 µM [activator, single point]",–
COc1ccc(-c2nc(-c3ccc(NC(=O)c4ccncc4)cc3)no2)cc1OC,"inconclusive: 25.1 µM [activator, partial curve]",–
Cc1ccccc1NC(=O)Cn1nnc(C(=O)NCc2cccs2)c1N,"inconclusive: 39.8 µM [inhibitor, single point]",–
COC(=O)CCSc1cc([N+](=O)[O-])cc2c1c(C1OCCO1)nn2-c1ccccc1,"inconclusive: 39.8 µM [activator, single point]",–
O=C(OCC(=O)N1CCN(C(=O)c2ccco2)CC1)c1sc2ccccc2c1Cl,"inconclusive: 39.8 µM [activator, single point]",–
CC(C)(C)C(=O)Nc1ccc2nc(SCCOc3ccccc3Cl)sc2c1,–,inactive: -4.04%
Cc1cccc(C)c1N,–,inactive: -3.31%
Cc1cc(C(=O)CN2C(=O)NC3(CCCc4sccc43)C2=O)c(C)n1-c1ccccc1 (stereo unspecified),"inconclusive: 31.6 µM [inhibitor, single point]",–
CCOc1ccc(-c2cc(CCCC(=O)NCCc3ccc(OC)c(OC)c3)no2)cc1,"inconclusive: 31.6 µM [activator, single point]",–
CCOc1ccccc1C(=O)Nc1cc(-c2nc3cccnc3s2)ccc1C,"inconclusive: 3.16 µM [inhibitor, single point]",–
COc1ccc(Nc2oc(-c3ccc(COc4ccccc4)o3)nc2C#N)cc1,"inconclusive: 25.1 µM [inhibitor, single point]",–
